# Experimental data as given in the supplement of paper PMC9446081.
# In all, about 39,000 compounds went through this assay and about 220 (0.56%) showed activity. The list shows a part of the results.
# Tested on: Escherichia coli K-12 BW25113
# Experiment: relative growth (OD600 normalised to plate interquartile mean) (fraction); higher = less growth inhibition, active = 0.2 or less
# Settings: 50 µM; LB; incubation time: overnight (16-24 h)
# 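Further: static incubation at 37 °C against the wild-type strain, values averaged over two biological replicates.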
row,Structure (SMILES),relative growth
1,O=C(C[C@H]1CC[C@@H]2[C@H](COC[C@@H](O)CN2S(=O)(=O)c2ccccc2F)O1)NCc1ccccc1Cl,inactive: 1.02
2,C[C@H]1CN([C@@H](C)CO)C(=O)c2cc(C#CC3(O)CCCC3)cnc2O[C@@H]1CN(C)C(=O)CN(C)C,inactive: 1.04
3,Cc1noc(C)c1NC(=O)Nc1ccc2c(c1)C(=O)N([C@H](C)CO)C[C@@H](C)[C@H](CN(C)C(=O)Nc1cccc3ccccc13)O2,inactive: 1.02
4,CC(C)C(=O)O,inactive: 0.991
5,C[C@H](CO)N1C[C@H](C)[C@@H](CN(C)S(=O)(=O)c2ccc(Cl)cc2)OCCCC[C@H](C)Oc2ccc(NC(=O)Nc3ccccc3)cc2C1=O,inactive: 1.05
6,C[C@H](CO)N1C[C@H](C)[C@H](CN(C)S(=O)(=O)c2ccccc2)Oc2ccc(NS(=O)(=O)c3cccs3)cc2CC1=O,inactive: 0.996
7,Cc1ccc(S(=O)(=O)Nc2cccc3c2O[C@@H](CN(C)S(=O)(=O)c2cn(C)cn2)[C@H](C)CN([C@@H](C)CO)C3=O)cc1,inactive: 1
8,NC(=O)NCC#Cc1ccc2c(c1)[C@]1(C(=O)N2)[C@H](C(=O)N2CCCCCCC2)[C@H]2C(=O)O[C@H](c3ccccc3)[C@H](c3ccccc3)N2[C@@H]1c1ccc(O)cc1,inactive: 1.04
9,COc1ccc([Si](C)(C)[C@@H]2[C@@H](CCn3cc([C@H](O)c4ccccc4)nn3)O[C@]3(C(=O)N(Cc4ccc(N5C(=O)c6cccc7cccc5c67)cc4)c4ccccc43)[C@H]2C)cc1,inactive: 0.913
10,NCC1OC(OC2C(CO)OC(OC3C(O)C(N)CC(N)C3OC3OC(CO)C(O)C(O)C3N)C2O)C(N)C(O)C1O.O=S(=O)(O)O (stereo not drawn),inactive: 0.915
11,C[C@@H]1CCCCO[C@@H](CN(C)C(=O)Nc2ccc(F)cc2)[C@H](C)CN([C@@H](C)CO)C(=O)c2cc(NS(=O)(=O)c3ccc(Cl)cc3)ccc2O1,inactive: 1.01
12,C[C@@H]1CCCCO[C@H](CN(C)S(=O)(=O)c2ccc(Cl)cc2)[C@H](C)CN([C@H](C)CO)C(=O)c2cc(NC(=O)Cc3ccccc3)ccc2O1,inactive: 1.03
13,C[C@H]1CN([C@@H](C)CO)C(=O)c2cccc(NC(=O)c3cnccn3)c2O[C@@H]1CN(C)S(=O)(=O)c1ccc(Cl)cc1,inactive: 0.925
14,C[C@@H]1CCCCO[C@@H](CN(C)Cc2ccc3c(c2)OCO3)[C@@H](C)CN([C@H](C)CO)C(=O)c2cc(NC(=O)c3ccccc3)ccc2O1,inactive: 1.01
15,O=C(C[C@H]1CC[C@H]2[C@@H](COC[C@@H](O)CN2S(=O)(=O)c2ccc(F)cc2)O1)N[C@@H]1CCN(Cc2ccccc2)C1,inactive: 1.02
16,C[C@H]1CCCCO[C@@H](CN(C)C(=O)Nc2ccc(C(F)(F)F)cc2)[C@@H](C)CN([C@@H](C)CO)C(=O)c2cc(NC(=O)Nc3ccc(C(F)(F)F)cc3)ccc2O1,inactive: 1.01
17,C[C@H]1CN([C@@H](C)CO)C(=O)c2cccc(NC(=O)C3CCOCC3)c2O[C@@H]1CN(C)Cc1ccc(C(=O)O)cc1,inactive: 0.992
18,C[C@@H]1CN([C@@H](C)CO)C(=O)c2cc(C#Cc3ccncc3)cnc2O[C@@H]1CN(C)C(=O)c1ccccc1F,inactive: 0.996
19,CC(=O)O[C@@H]1[C@@H](OC(C)=O)[C@@H]2OC[C@@H](O2)[C@H]1OC(C)=O,inactive: 0.987
20,C[C@@H]1CCCCO[C@@H](CN(C)C(=O)Nc2ccc(F)cc2)[C@@H](C)CN([C@@H](C)CO)C(=O)c2cc(NC(=O)CCCN(C)C)ccc2O1,inactive: 0.989

row,Structure (SMILES),relative growth
1,C[C@@H]1CN([C@@H](C)CO)C(=O)c2cccc(NC(=O)C3CCCCC3)c2O[C@@H]1CN(C)Cc1ccc(C(F)(F)F)cc1,inactive: 0.969
2,CN1CCN(C(=O)C[C@@H]2CC[C@@H]3[C@H](COC[C@@H](O)CN3C(=O)Nc3cc(Cl)cc(Cl)c3)O2)CC1,inactive: 0.948
3,C[C@@H]1CN([C@H](C)CO)C(=O)c2cc(NC(=O)NC3CCCCC3)ccc2O[C@@H](C)CCCCO[C@H]1CN(C)C(=O)Nc1ccc2c(c1)OCO2,inactive: 1
4,COc1ccc(S(=O)(=O)N2C[C@@H](O)COC[C@@H]3O[C@@H](CC(=O)NCCN4CCCCC4)CC[C@H]32)cc1,inactive: 0.942
5,Cc1ccc(S(=O)(=O)Nc2ccc3c(c2)C(=O)N([C@H](C)CO)C[C@H](C)[C@@H](CN(C)CC2CCCCC2)OCCCC[C@H](C)O3)cc1,inactive: 1.02
6,CCC(=O)N(C)C[C@H]1Oc2ncc(C#C[C@@H](C)O)cc2C(=O)N([C@H](C)CO)C[C@@H]1C,inactive: 1.01
7,Cn1cnc(S(=O)(=O)N2C[C@@H](O)COC[C@@H]3O[C@H](CC(=O)NCc4ccc(F)cc4)CC[C@H]32)c1,inactive: 0.987
8,C[C@@H]1CCCCO[C@@H](CN(C)Cc2ccc(C(=O)Nc3ccccc3N)cc2)[C@@H](C)CN([C@H](C)CO)C(=O)c2cc(NC(=O)Cc3ccccc3)ccc2O1,inactive: 1.01
9,O=C(Nc1cc(Cl)ccc1Cl)c1cc(Br)ccc1NS(=O)(=O)c1ccc(Cl)c([N+](=O)[O-])c1,inactive: 0.756
10,C[C@H](CO)N1C[C@H](C)[C@H](CN(C)C(=O)Cc2ccccn2)Oc2ncc(-c3ccc(F)cc3)cc2C1=O,inactive: 0.983
11,C[C@H]1CN([C@@H](C)CO)C(=O)c2cccc(NC(=O)c3nc4ccccc4s3)c2O[C@H]1CN(C)Cc1ccc(Cl)c(Cl)c1,inactive: 1.01
12,CC(C)NC(=O)Nc1ccc2c(c1)C(=O)N([C@H](C)CO)C[C@H](C)[C@@H](CN(C)S(C)(=O)=O)OCCCC[C@H](C)O2,inactive: 1
13,Cc1ccc(S(=O)(=O)Nc2ccc3c(c2)C(=O)N([C@H](C)CO)C[C@H](C)[C@H](CN(C)Cc2ccncc2)OCCCC[C@@H](C)O3)cc1,inactive: 0.986
14,C[C@@H]1CN([C@H](C)CO)C(=O)c2cc(Br)cnc2O[C@@H]1CN(C)C(=O)Nc1cccc(F)c1,inactive: 0.996
15,C[C@@H]1CCCCO[C@H](CN(C)Cc2ccc3c(c2)OCO3)[C@H](C)CN([C@H](C)CO)C(=O)c2cc(NC(=O)Nc3ccccc3)ccc2O1,inactive: 1.02
16,NC1=NCCN1CC(=O)O,inactive: 1.02
17,C[C@@H]1CN([C@@H](C)CO)C(=O)Cc2cc(NC(=O)Nc3ccc4c(c3)OCO4)ccc2O[C@H]1CN(C)C(=O)Nc1cccc2ccccc12,inactive: 0.993
18,C[C@H](CO)N1C[C@H](C)[C@H](CN(C)C(=O)Nc2ccc(C(F)(F)F)cc2)Oc2ccc(NC(=O)CCCCCC(=O)Nc3ccccc3N)cc2C1=O,inactive: 0.925
19,Nc1ccc2[nH]c(=S)sc2c1,inactive: 1.01
20,C[C@@H]1CN([C@@H](C)CO)C(=O)Cc2cc(NS(=O)(=O)c3ccc(Cl)cc3)ccc2O[C@@H]1CN(C)C,inactive: 1.01

row,Structure (SMILES),relative growth
1,COc1ccc(NC(=O)N(C)C[C@@H]2OCCCC[C@@H](C)Oc3ccc(NC(=O)c4ccncc4)cc3C(=O)N([C@H](C)CO)C[C@@H]2C)cc1,inactive: 0.919
2,C[C@@H]1CCCCO[C@H](CN(C)S(=O)(=O)c2cccs2)[C@@H](C)CN([C@@H](C)CO)C(=O)c2cc(NS(=O)(=O)c3ccc(Cl)cc3)ccc2O1,inactive: 1.03
3,COc1ccc(NC(=O)N(C)C[C@@H]2OCCCC[C@@H](C)Oc3ccc(NC(=O)Nc4ccc(C(F)(F)F)cc4)cc3C(=O)N([C@H](C)CO)C[C@@H]2C)cc1,inactive: 1.03
4,Cl.NC(N)=NC(N)=NCCc1ccccc1,inactive: 1.17
5,O=C(O)c1cccc(-c2ccccc2)c1,inactive: 0.978
6,C[C@@H]1CN([C@@H](C)CO)C(=O)CCCn2nncc2CO[C@H]1CN(C)S(=O)(=O)c1ccc(C#N)cc1,inactive: 0.984
7,COc1ccc(S(=O)(=O)N2C[C@@H](O)COC[C@H]3O[C@@H](CC(=O)N[C@@H]4CCN(Cc5ccccc5)C4)CC[C@@H]32)cc1,inactive: 0.997
8,C[C@H](CO)N1C[C@H](C)[C@H](CN(C)S(=O)(=O)c2cn(C)cn2)OCCCC[C@H](C)Oc2ccc(NC(=O)c3ccncc3)cc2C1=O,inactive: 0.966
9,C[C@@H]1CCCCO[C@@H](CN(C)S(=O)(=O)c2ccccc2)[C@H](C)CN([C@H](C)CO)C(=O)c2cc(NC(=O)Nc3ccc(F)cc3)ccc2O1,inactive: 1.03
10,Cc1cc(-c2ccccc2)nc(SCc2ccccc2)c1C#N,inactive: 1
11,COc1ccc(NC(=O)Nc2ccc3c(c2)C(=O)N([C@H](C)CO)C[C@H](C)[C@@H](CN(C)CC2CCCCC2)O3)cc1,inactive: 1
12,C[C@@H]1CN([C@@H](C)CO)C(=O)c2cccc(NC(=O)C3CC3)c2O[C@H]1CN(C)Cc1ccc(C(=O)O)cc1,inactive: 1.04
13,CCOc1ccc(/C=C/C(=O)Sc2ccc(Cl)cc2)cc1,inactive: 1.05
14,C[C@H]1CN([C@@H](C)CO)C(=O)Cc2cc(NC(=O)Nc3ccc4c(c3)OCO4)ccc2O[C@H]1CN(C)S(=O)(=O)c1cn(C)cn1,inactive: 0.835
15,C[C@H](CO)N1C[C@H](C)[C@@H](CN(C)S(=O)(=O)c2ccc(F)cc2)Oc2ccc(NC(=O)CCCN(C)C)cc2C1=O,inactive: 0.998
16,C[C@@H](NC(=O)C[C@H]1C=C[C@@H](NC(=O)CN2CCOCC2)[C@H](CO)O1)c1ccccc1,inactive: 0.98
17,COc1ccc(NC(=O)N[C@H]2CC[C@H](CCNC(=O)CN3CCOCC3)O[C@H]2CO)cc1,inactive: 0.971
18,Cc1noc(C)c1NC(=O)N(C)C[C@@H]1Oc2ccc(NC(=O)c3ccncc3)cc2CC(=O)N([C@H](C)CO)C[C@H]1C,inactive: 0.971
